# According to the supplement of paper PMC8728848:
# The other results are listed elsewhere or left out.
# B1: Thrombomodulin (Mus musculus) (protein)
# chain: ALAKLQPTGSQCVEHECFALFQGPATFLDASQACQRLQGHLMTVRSSVAADVISLLLSQSSMDLGPWIGLQLPQGCDDPVHLGPLRGFQWVTGDNHTSYSRWARPNDQTAPLCGPLCVTVSTATEAAPGEPAWEEKPCETETQGFLCEFYFTASC
# Columns and labels:
# Test in all cases: glycan array binding signal (z-score within array); higher = stronger binding
# Details in all cases: glycan notation: IUPAC condensed, linker removed
# [1] = target: Gal(b1-3)GlcNAc(b1-2)Man(a1-3)[Gal(b1-3)GlcNAc(b1-2)Man(a1-6)]Man(b1-4)GlcNAc(b1-4)[Fuc(a1-6)]GlcNAc
# Method in brief: (§1)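 The binding signal is a Z-score computed within each array and averaged over linkers. Arrays of the same protein sequence at different concentrations or buffers were also averaged together. Data originate from 3228 arrays in the Consortium for Functional Glycomics database, kept only where the protein sequence was available.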
# [2] = target: Gal(b1-3)GlcNAc(b1-2)Man(a1-3)[GlcNAc(b1-4)][Gal(b1-3)GlcNAc(b1-2)Man(a1-6)]Man(b1-4)GlcNAc(b1-4)GlcNAc
# Method in brief: as §1
# [3] = target: Gal(b1-3)GlcNAc(b1-2)[Gal(b1-3)GlcNAc(b1-6)]Man(a1-6)[Gal(b1-3)GlcNAc(b1-2)Man(a1-3)]Man(b1-4)GlcNAc(b1-4)GlcNAc
# Method in brief: as §1
# [4] = target: Gal(b1-3)GlcNAc(b1-3)Gal(b1-3)GlcNAc
# Method in brief: as §1
# [5] = target: Gal(b1-3)GlcNAc(b1-3)Gal(b1-4)Glc
# Method in brief: as §1
# [6] = target: Gal(b1-3)GlcNAc(b1-3)Gal(b1-4)GlcNAc
# Method in brief: as §1
# [7] = target: Gal(b1-3)GlcNAc(b1-3)Gal(b1-4)GlcNAc(b1-2)Man(a1-3)[Gal(b1-3)GlcNAc(b1-3)Gal(b1-4)GlcNAc(b1-2)Man(a1-6)]Man(b1-4)GlcNAc(b1-4)GlcNAc
# Method in brief: as §1
# [8] = target: Gal(b1-3)GlcNAc(b1-3)Gal(b1-4)GlcNAc(b1-2)[Gal(b1-3)GlcNAc(b1-3)Gal(b1-4)GlcNAc(b1-6)]Man(a1-6)[Gal(b1-3)GlcNAc(b1-3)Gal(b1-4)GlcNAc(b1-2)Man(a1-3)]Man(b1-4)GlcNAc(b1-4)[Fuc(a1-6)]GlcNAc
# Method in brief: as §1
# [9] = target: Gal(b1-3)GlcNAc(b1-3)Gal(b1-4)GlcNAc(b1-3)Gal(b1-4)GlcNAc(b1-2)[Gal(b1-3)GlcNAc(b1-3)Gal(b1-4)GlcNAc(b1-3)Gal(b1-4)GlcNAc(b1-6)]Man(a1-6)[Gal(b1-3)GlcNAc(b1-3)Gal(b1-4)GlcNAc(b1-3)Gal(b1-4)GlcNAc(b1-2)Man(a1-3)]Man(b1-4)GlcNAc(b1-4)[Fuc(a1-6)]GlcNAc
# Method in brief: as §1
# [10] = target: Gal(b1-3)GlcNAc(b1-3)Gal(b1-4)GlcNAc(b1-6)[Gal(b1-3)GlcNAc(b1-3)]Gal(b1-4)Glc
# Method in brief: as §1
# [11] = target: Gal(b1-3)GlcNAc(b1-3)Gal(b1-4)[Fuc(a1-3)]GlcNAc
# Method in brief: as §1
# [12] = target: Gal(b1-3)GlcNAc(b1-3)Gal(b1-4)[Fuc(a1-3)]GlcNAc(b1-6)[Gal(b1-3)GlcNAc(b1-3)]Gal(b1-4)Glc
# Method in brief: as §1
# [13] = target: Gal(b1-3)GlcNAc(b1-3)GalNAc
# Method in brief: as §1
# [14] = target: Gal(b1-3)GlcNAc(b1-6)Gal(b1-4)GlcNAc
# Method in brief: as §1
# [15] = target: Gal(b1-3)GlcNAc(b1-6)GalNAc
# Method in brief: as §1
# [16] = target: Gal(b1-3)GlcNAc(b1-6)[Gal(b1-3)]GalNAc
# Method in brief: as §1
# [17] = target: Gal(b1-3)GlcNAc6S
# Method in brief: as §1
# [18] = target: Gal(b1-3)[Fuc(a1-4)]GlcNAc
# Method in brief: as §1
# [19] = target: Gal(b1-3)[Fuc(a1-4)]GlcNAc(b1-2)Man
# Method in brief: as §1
# [20] = target: Gal(b1-3)[Fuc(a1-4)]GlcNAc(b1-2)Man(a1-3)[Gal(b1-3)[Fuc(a1-4)]GlcNAc(b1-2)Man(a1-6)]Man(b1-4)GlcNAc(b1-4)[Fuc(a1-6)]GlcNAc
# Method in brief: as §1
# [21] = target: Gal(b1-3)[Fuc(a1-4)]GlcNAc(b1-3)Gal(b1-3)[Fuc(a1-4)]GlcNAc
# Method in brief: as §1
# [22] = target: Gal(b1-3)[Fuc(a1-4)]GlcNAc(b1-3)Gal(b1-4)[Fuc(a1-3)]GlcNAc
# Method in brief: as §1
# [23] = target: Gal(b1-3)[Fuc(a1-4)]GlcNAc(b1-6)GalNAc
# Method in brief: as §1
# [24] = target: Gal(b1-3)[GlcNAc(b1-6)]GalNAc
# Method in brief: as §1
# [25] = target: Gal(b1-3)[Neu5Ac(a2-6)]GalNAc
# Method in brief: as §1
# [26] = target: Gal(b1-3)[Neu5Ac(a2-6)]GlcNAc(b1-4)Gal(b1-4)Glc
# Method in brief: as §1
# [27] = target: Gal(b1-3)[Neu5Ac(b2-6)]GalNAc
# Method in brief: as §1
# [28] = target: Gal(b1-4)Gal
# Method in brief: as §1
# [29] = target: Gal(b1-4)GalNAc(a1-3)[Fuc(a1-2)]Gal(b1-4)GlcNAc
# Method in brief: as §1
# [30] = target: Gal(b1-4)GalNAc(b1-3)[Fuc(a1-2)]Gal(b1-4)GlcNAc
# Method in brief: as §1
# [31] = target: Gal(b1-4)Glc
# Method in brief: as §1
# [32] = target: Gal(b1-4)Glc6S
# Method in brief: as §1
# [33] = target: Gal(b1-4)GlcNAc
# Method in brief: as §1
# [34] = target: Gal(b1-4)GlcNAc(a1-6)Gal(b1-4)GlcNAc
# Method in brief: as §1
# [35] = target: Gal(b1-4)GlcNAc(b1-2)Man
# Method in brief: as §1
# [36] = target: Gal(b1-4)GlcNAc(b1-2)Man(a1-3)Man(b1-4)GlcNAc(b1-4)GlcNAc
# Method in brief: as §1
# [37] = target: Gal(b1-4)GlcNAc(b1-2)Man(a1-3)[Gal(b1-4)GlcNAc(b1-2)Man(a1-6)]Man(b1-4)GlcNAc(b1-4)GlcNAc
# Method in brief: as §1
# [38] = target: Gal(b1-4)GlcNAc(b1-2)Man(a1-3)[Gal(b1-4)GlcNAc(b1-2)Man(a1-6)]Man(b1-4)GlcNAc(b1-4)[Fuc(a1-6)]GlcNAc
# Method in brief: as §1
# [39] = target: Gal(b1-4)GlcNAc(b1-2)Man(a1-3)[Gal(b1-4)GlcNAc(b1-2)Man(a1-6)][Gal(b1-4)GlcNAc(b1-4)]Man(b1-4)GlcNAc(b1-4)[Fuc(a1-6)]GlcNAc
# Method in brief: as §1
# [40] = target: Gal(b1-4)GlcNAc(b1-2)Man(a1-3)[Gal(b1-4)GlcNAc(b1-2)Man(a1-6)][GlcNAc(b1-4)]Man(b1-4)GlcNAc(b1-4)[Fuc(a1-6)]GlcNAc
# Method in brief: as §1
# [41] = target: Gal(b1-4)GlcNAc(b1-2)Man(a1-3)[GlcNAc(b1-2)Man(a1-6)]Man(b1-4)GlcNAc(b1-4)GlcNAc
# Method in brief: as §1
# [42] = target: Gal(b1-4)GlcNAc(b1-2)Man(a1-3)[GlcNAc(b1-4)][Gal(b1-4)GlcNAc(b1-2)Man(a1-6)]Man(b1-4)GlcNAc(b1-4)GlcNAc
# Method in brief: as §1
# [43] = target: Gal(b1-4)GlcNAc(b1-2)Man(a1-3)[Man(a1-6)]Man(b1-4)GlcNAc(b1-4)GlcNAc
# Method in brief: as §1
# [44] = target: Gal(b1-4)GlcNAc(b1-2)Man(a1-6)Man(b1-4)GlcNAc(b1-4)GlcNAc
# Method in brief: as §1
# [45] = target: Gal(b1-4)GlcNAc(b1-2)Man(a1-6)[GlcNAc(b1-2)Man(a1-3)]Man(b1-4)GlcNAc(b1-4)GlcNAc
# Method in brief: as §1
binder,measurement,setting,value
B1,glycan array binding signal (z-score),[1],-0.294
same,glycan array binding signal (z-score),[2],-0.424
same,glycan array binding signal (z-score),[3],0.037
same,glycan array binding signal (z-score),[4],0.083
same,glycan array binding signal (z-score),[5],0.106
same,glycan array binding signal (z-score),[6],-0.283
same,glycan array binding signal (z-score),[7],-0.022
same,glycan array binding signal (z-score),[8],-0.125
same,glycan array binding signal (z-score),[9],-0.27
same,glycan array binding signal (z-score),[10],0.148
same,glycan array binding signal (z-score),[11],-0.198
same,glycan array binding signal (z-score),[12],-0.066
same,glycan array binding signal (z-score),[13],-0.491
same,glycan array binding signal (z-score),[14],-0.192
same,glycan array binding signal (z-score),[15],-0.186
same,glycan array binding signal (z-score),[16],-0.267
same,glycan array binding signal (z-score),[17],-0.075
same,glycan array binding signal (z-score),[18],-0.229
same,glycan array binding signal (z-score),[19],0.418
same,glycan array binding signal (z-score),[20],0.595
same,glycan array binding signal (z-score),[21],-0.012
same,glycan array binding signal (z-score),[22],0.029
same,glycan array binding signal (z-score),[23],-0.221
same,glycan array binding signal (z-score),[24],-0.047
same,glycan array binding signal (z-score),[25],-0.193
same,glycan array binding signal (z-score),[26],-0.124
same,glycan array binding signal (z-score),[27],0.148
same,glycan array binding signal (z-score),[28],-0.347
same,glycan array binding signal (z-score),[29],-0.417
same,glycan array binding signal (z-score),[30],-0.214
same,glycan array binding signal (z-score),[31],-0.248
same,glycan array binding signal (z-score),[32],-0.068
same,glycan array binding signal (z-score),[33],-0.162
same,glycan array binding signal (z-score),[34],-0.047
same,glycan array binding signal (z-score),[35],0.259
same,glycan array binding signal (z-score),[36],-0.092
same,glycan array binding signal (z-score),[37],-0.235
same,glycan array binding signal (z-score),[38],-0.046
same,glycan array binding signal (z-score),[39],-0.252
same,glycan array binding signal (z-score),[40],-0.343
same,glycan array binding signal (z-score),[41],-0.463
same,glycan array binding signal (z-score),[42],-0.271
same,glycan array binding signal (z-score),[43],0.067
same,glycan array binding signal (z-score),[44],-0.282
same,glycan array binding signal (z-score),[45],-0.233
